A lower IC50 marks a more sensitive line; where the fit passes the top or lowest dose, that dose stands as a limit. AUC sums up the same curve from the lowest dose to the 256-fold higher top dose; values near 1 show little effect. For part of these data: A top dose marked as inferred is not printed in the source and was worked back from the curve model. For part of these data: Drugs with an entry number were screened twice under separate entries, and the two screens often disagree.
Key:
Assay in all cases: Viability of human cancer cell lines after 72 h of drug (GDSC screen)
JNK Inhibitor VIII = compound: CCOc1nc(NC(=O)Cc2cc(OC)ccc2OC)cc(N)c1C#N [JNK Inhibitor VIII]; details: top dose 10 µM; top dose inferred
Method: (§1)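 Human cancer cell lines in 384-well plates, medium with 10% serum, drug for 72 h over a 256-fold dose range (nine 2-fold or five 4-fold steps up to the top dose). Adherent lines were fixed and stained with the nucleic acid dye Syto60, suspension lines read with resazurin; signal relative to control wells, capped at 0 and 100%. One two-parameter sigmoid per drug and line, fitted in a mixed model over all curves with the slope shared within a line.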

SB-715992 = compound: Cc1ccc(C(=O)N(CCCN)[C@@H](c2nc3cc(Cl)ccc3c(=O)n2Cc2ccccc2)C(C)C)cc1 [SB-715992]; details: top dose 0.128 µM; top dose inferred
Method: as §1

JNJ-26854165 = compound: c1ccc2c(CCNc3ccc(Nc4ccncc4)cc3)c[nH]c2c1 [JNJ-26854165]; details: top dose 10 µM
Method: as §1

NSC-207895 = compound: CN1CCN(c2ccc([N+](=O)[O-])c3no[n+]([O-])c23)CC1 [NSC-207895]; details: top dose 20 µM; top dose inferred
Method: as §1

YM155 = compound: COCC[n+]1c2c(n(Cc3cnccn3)c1C)C(=O)c1ccccc1C2=O [YM155]; details: top dose 5.12 µM
Method: as §1

Belinostat = compound: O=C(/C=C/c1cccc(S(=O)(=O)Nc2ccccc2)c1)NO [Belinostat]; details: top dose 20 µM; top dose inferred
Method: as §1

Cyclopamine = compound: CC1=C2C[C@H]3[C@@H](CC=C4C[C@@H](O)CC[C@@]43C)[C@@H]2CC[C@]12O[C@@H]1C[C@H](C)CN[C@H]1[C@H]2C [Cyclopamine]; details: top dose 16 µM; top dose inferred
Method: as §1

FTI-277 = compound: COC(=O)[C@H](CCSC)NC(=O)c1ccc(NC[C@@H](N)CS)cc1-c1ccccc1 [FTI-277]; details: top dose 1.024 µM; top dose inferred
Method: as §1

Docetaxel = compound: CC(=O)O[C@@]12CO[C@@H]1C[C@H](O)[C@@]1(C)C(=O)[C@H](O)C3=C(C)[C@@H](OC(=O)[C@H](O)[C@@H](NC(=O)OC(C)(C)C)c4ccccc4)C[C@@](O)([C@@H](OC(=O)c4ccccc4)[C@H]21)C3(C)C [Docetaxel]; details: top dose 0.0125 µM
Method: as §1

JQ1 = compound: Cc1sc2c(c1C)C(c1ccc(Cl)cc1)=N[C@@H](CC(=O)OC(C)(C)C)c1nnc(C)n1-2 [JQ1]
Method: as §1

AMG-706 = compound: CC1(C)CNc2cc(NC(=O)c3cccnc3NCc3ccncc3)ccc21 [AMG-706]; details: top dose 2 µM; top dose inferred
Method: as §1

CGP-60474 = compound: OCCCNc1cc(-c2ccnc(Nc3cccc(Cl)c3)n2)ccn1 [CGP-60474]; details: top dose 0.256 µM; top dose inferred
Method: as §1

OSI-906 = compound: C[C@]1(O)C[C@@H](c2nc(-c3ccc4ccc(-c5ccccc5)nc4c3)c3c(N)nccn32)C1 [OSI-906]; details: top dose 2.56 µM; top dose inferred
Method: as §1

NVP-TAE684 = compound: COc1cc(N2CCC(N3CCN(C)CC3)CC2)ccc1Nc1ncc(Cl)c(Nc2ccccc2S(=O)(=O)C(C)C)n1 [NVP-TAE684]; details: top dose 2 µM
Method: as §1

[1] = top dose 1 µM, screen: GDSC drug entry 1218, top dose inferred
[2] = top dose 2.56 µM, screen: GDSC drug entry 163

Row | Cell Line | AUC (JNK Inhibitor VIII) | IC50 (JNK Inhibitor VIII) | AUC (SB-715992) | IC50 (SB-715992) | AUC (JNJ-26854165) | IC50 (JNJ-26854165) | AUC (NSC-207895) | IC50 (NSC-207895) | AUC (YM155) | IC50 (YM155) | AUC (Belinostat) | IC50 (Belinostat) | AUC (Cyclopamine) | IC50 (Cyclopamine) | AUC (FTI-277) | IC50 (FTI-277) | AUC (Docetaxel) | IC50 (Docetaxel) | AUC (JQ1; [1]) | IC50 (JQ1; [1]) | AUC (JQ1; [2]) | IC50 (JQ1; [2]) | AUC (AMG-706) | IC50 (AMG-706) | AUC (CGP-60474) | IC50 (CGP-60474) | AUC (OSI-906) | IC50 (OSI-906) | AUC (NVP-TAE684) | IC50 (NVP-TAE684)
1 | HC-1 (hairy cell leukaemia, suspension) | 0.987 | > 10 µM | 0.635 | 18.6 nM | 0.871 | 8.81 µM | 0.828 | 11.7 µM | 0.023 | < 20 nM | 0.203 | 174 nM | 0.933 | > 16 µM | 0.981 | > 1020 nM | 0.947 | > 12.5 nM | 0.984 | > 1000 nM | 0.824 | 1450 nM | 0.987 | > 2000 nM | 0.635 | 37.1 nM | 0.981 | > 2560 nM | 0.899 | > 2000 nM
2 | HCC1187 (breast, suspension) | 0.982 | > 10 µM | 0.543 | 10.4 nM | 0.921 | > 10 µM | 0.929 | > 20 µM | 0.064 | < 20 nM | 0.777 | 7650 nM | 0.982 | > 16 µM | 0.985 | > 1020 nM | 0.59 | 1.36 nM | 0.984 | > 1000 nM | 0.833 | 1540 nM | 0.988 | > 2000 nM | 0.844 | 170 nM | 0.958 | > 2560 nM | 0.867 | 1650 nM
3 | HCC2218 (breast, suspension) | 0.983 | > 10 µM | 0.814 | 93.4 nM | 0.963 | > 10 µM | 0.967 | > 20 µM | 0.056 | < 20 nM | 0.713 | 5900 nM | 0.947 | > 16 µM | 0.966 | > 1020 nM | 0.963 | > 12.5 nM | 0.93 | > 1000 nM | 0.799 | 1610 nM | 0.984 | > 2000 nM | 0.816 | 191 nM | 0.984 | > 2560 nM | 0.97 | > 2000 nM
4 | HD-MY-Z (Hodgkin lymphoma, adherent) | 0.979 | > 10 µM | 0.692 | 27.8 nM | 0.814 | 5.46 µM | 0.83 | 12.7 µM | 0.024 | < 20 nM | 0.397 | 651 nM | 0.965 | > 16 µM | 0.986 | > 1020 nM | 0.591 | 1.39 nM | 0.982 | > 1000 nM | 0.976 | > 2560 nM | 0.98 | > 2000 nM | 0.685 | 52.8 nM | 0.986 | > 2560 nM | 0.916 | > 2000 nM
5 | HUTU-80 (digestive system, adherent) | 0.991 | > 10 µM | 0.54 | 10.1 nM | 0.833 | 4.96 µM | 0.605 | 2.31 µM | 0.015 | < 20 nM | 0.265 | 309 nM | 0.955 | > 16 µM | 0.984 | > 1020 nM | 0.573 | 1.19 nM | 0.991 | > 1000 nM | 0.795 | 962 nM | 0.991 | > 2000 nM | 0.666 | 42.2 nM | 0.929 | > 2560 nM | 0.704 | 416 nM
6 | IST-MEL1 (melanoma, adherent) | 0.973 | > 10 µM | 0.972 | > 128 nM | 0.85 | 9.98 µM | 0.789 | 10.8 µM | 0.035 | < 20 nM | 0.406 | 658 nM | 0.971 | > 16 µM | 0.963 | > 1020 nM | 0.689 | 2.95 nM | 0.978 | > 1000 nM | 0.665 | 506 nM | 0.978 | > 2000 nM | 0.69 | 60.8 nM | 0.951 | > 2560 nM | 0.915 | > 2000 nM
7 | IST-SL2 (small cell lung carcinoma, suspension) | 0.989 | > 10 µM | 0.664 | 22.8 nM | 0.862 | 8.45 µM | 0.988 | > 20 µM | 0.988 | > 5120 nM | 0.988 | > 20000 nM | 0.905 | > 16 µM | 0.988 | > 1020 nM | 0.931 | > 12.5 nM | 0.976 | > 1000 nM | 0.752 | 844 nM | 0.975 | > 2000 nM | 0.565 | 24.1 nM | 0.977 | > 2560 nM | 0.9 | > 2000 nM
8 | JJN-3 (haematopoietic neoplasm, suspension) | 0.993 | > 10 µM | 0.69 | 24.3 nM | 0.916 | > 10 µM | 0.952 | > 20 µM | 0.017 | < 20 nM | 0.231 | 249 nM | 0.99 | > 16 µM | 0.991 | > 1020 nM | 0.783 | 4.31 nM | 0.991 | > 1000 nM | 0.628 | 336 nM | 0.981 | > 2000 nM | 0.681 | 46 nM | 0.936 | > 2560 nM | 0.817 | 873 nM

Reference: the supplement of paper PMC4967469
